# Measured values: PubChem BioAssay AID686978 (National Center for Advancing Translational Sciences (NCATS), 2013)
# In all, about 420,000 compounds went through this assay and about 64,000 (15%) were called active. The inconclusive results got no clear call from the source; some entries with a clear call stand among them for comparison. Calls come from the whole dose curve; as a rule, active = well fitted inhibition curve with a large enough effect; inconclusive = small, poorly fitted or top-dose-only effect; inactive = flat fitted curve, though single readings scatter. No potency is given beside an inconclusive call; the fits are too rough. More than one record can exist for a structure, and the calls need not agree.
# Assay: qHTS for Inhibitors of human tyrosyl-DNA phosphodiesterase 1 (TDP1): qHTS in cells in absence of CPT; note: nearly all actives have a fitted effect of over 55% in size
# Conditions: DT40 Tdp1-/- hTDP1 cells, no CPT, ATP luminescence, 48 h; activity change, negative = growth inhibition: at 46.2 µM (top of the series) unless noted
# Method in brief: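 Chicken DT40 Tdp1-/- cells stably complemented with human TDP1 were seeded at 400 cells/well with DMSO in place of 20 nM camptothecin. After compound pinning, cells grew at least 48 hr at 37 °C; viability read by CellTiter-Glo luminescence.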
# % is set by controls: 0 for no effect and ±100 for the full control effect; potency is the fitted concentration of half-maximal effect; tags give direction and shape of the fitted curve.
SMILES,Potency,"activity change, negative = growth inhibition"
COc1ccc(/C=C(/NC(=O)c2ccc(OC)cc2)C(=O)NCCc2c[nH]c3ccccc23)cc1,inactive,
Cc1ccc(NC(=O)CCCn2c(=S)[nH]c3ccsc3c2=O)cc1C,inactive,
CCc1ccc(NC(=S)N(Cc2ccc(Cl)cc2)Cc2ccc(C(=O)O)cc2)cc1,inactive,
CC1CCc2nc(/C(C#N)=C/c3cccnc3)sc2C1 (stereo unspecified),"inconclusive [inhibitor, single point]",
CC(C)c1nc(SCC(=O)N2CCCc3ccccc32)c2c(=O)n(C)c(=O)n(C)c2n1,active: 6.51 µM,
Cc1ccc(S(=O)(=O)CCC(=O)OCC(=O)NC(N)=O)cc1,inactive,
COc1ccccc1/C=C/CN1CCN(Cc2ccc(C)o2)C(CCO)C1 (stereo unspecified),"inconclusive [inhibitor, single point]",
FC(F)(F)c1cnc(-c2cc3c(c(OCC4CCCO4)c2)OCCN(Cc2cccn2-c2nccs2)C3)c(Cl)c1 (stereo unspecified),inactive,
CCn1c2ccccc2c2nnc(SCC(=O)c3ccccc3)nc21,"inconclusive [inhibitor, single point]",
COc1ccc(NC(C)=O)cc1NC(C)C(=O)Nc1cccc2ccccc12 (stereo unspecified),inactive,
Cc1csc(SCC(=O)NC2CCS(=O)(=O)C2)n1 (stereo unspecified),"inconclusive [inhibitor, single point]",
CCCOc1ccc(-c2nc(C#N)c(NCCCn3ccnc3)o2)cc1,active: 18.4 µM,
O=C(Cn1cc(SCc2ccccc2F)c2ccccc21)N1CCCC1,"inconclusive [inhibitor, single point]",
CC(C)C[C@@H]1COc2cccc(N3CCC[C@@H]3CO)c2S(=O)(=O)N1,"inconclusive [inhibitor, single point]",
CC(=O)Nc1cccc(C(=O)/C=C/c2cccs2)c1,active: 20.6 µM,
CCOc1ccc(S(=O)(=O)NCc2cccnc2)c2ccccc12,inactive,
N#C/C(=C\C1=C(N2CCOCC2)C(=C/c2cccc([N+](=O)[O-])c2)/CC1)C(=O)Nc1ccccc1F,active: 10.3 µM,
CCCOc1ccc2nc(NC(=O)OC)[nH]c2c1,active: 0.15 µM,
CC(C)(C)c1cc(Cc2ccccc2)[nH]n1,inactive,
CCOc1ccc(OCC)c(Nc2nc3ccc(C(=O)c4ccccc4)cc3n3cnnc23)c1,inactive,
COc1ccc(-c2csc(/C(C#N)=C/Nc3ccc4c(c3)OCCO4)n2)cc1,,inconclusive: -30% [inhibitor]
Cc1c(C#N)c2ncn(Cc3ccccn3)c(=O)c2n1-c1ccccc1,"inconclusive [inhibitor, partial curve, poor fit]",
CN(CC(=O)NCCc1ccc(S(N)(=O)=O)cc1)CC(=O)Nc1ccccc1Cl,inactive,
Cc1ccc(-c2nnc(CSc3nc4cc5c(cc4cc3C)OCO5)o2)cc1,active: 20.6 µM,
O=C(NCc1cccc(C(F)(F)F)c1)c1cc(Cl)ccc1Cl,"inconclusive [inhibitor, single point]",
CC(C)[C@@H](CO)NS(=O)(=O)c1ccc(Br)cc1F,inactive,

SMILES,Potency,"activity change, negative = growth inhibition"
O=C(Cc1cccs1)N(CC1CCCO1)C1(C(=O)NC2CCCC2)CCCCC1 (stereo unspecified),active: 16.4 µM,
O=C1Nc2cc(C(=O)N3CCN(c4ccccn4)CC3)ccc2S/C1=C\c1ccccc1,"inconclusive [inhibitor, single point]",
CCOC(=O)c1cnc(SC)nc1Sc1cc(Cl)ccc1Cl,active: 18.4 µM,
CCCCOc1ccc(OCCCN2CCOCC2)cc1,"inconclusive [inhibitor, single point]",
O=C(NCc1cccnc1)c1c(O)c2cccc3c2n(c1=O)CCC3,"inconclusive [inhibitor, single point]",
COC(=O)[C@@H]1CCCN1Cc1ccc2c(c1)CN(Cc1ccc3c(c1)OCCO3)CCO2,inactive,
CS(=O)(=O)N(CC(=O)NCCSCc1cccc(Cl)c1)c1ccc(F)cc1,inactive,
COc1ccc(N2CCN(C(=O)CSc3ccc([N+](=O)[O-])cc3)CC2)cc1,active: 23.1 µM,
Cc1ccc(S(=O)(=O)NCCNC(=O)CN2CCOCC2)cc1,inactive,
COc1ccc(-n2nc(C(=O)NCC(=O)N3CCN(c4ccccn4)CC3)c3ccccc3c2=O)c(OC)c1,"inconclusive [inhibitor, single point]",
O=C(N/N=C/c1cccnc1)c1cccc(Cl)c1,inactive,
Cc1cc(N2CCCCC2)ccc1[N+](=O)[O-],"inconclusive [inhibitor, single point]",
CCOC(=O)C1C(=O)C=C(c2cccs2)CC1c1ccccc1C (stereo unspecified),"inconclusive [inhibitor, partial curve, poor fit]",
CC1(C)CC(NS(=O)(=O)c2ccc(C(C)(C)C)cc2)CC(C)(C)N1,,inconclusive: -37.5% [inhibitor]
COC(=O)c1ccc(NC(=O)NC(C)c2c(-n3cccc3)sc(C)c2C)cc1 (stereo unspecified),"inconclusive [inhibitor, single point]",
N#CC1=C(N)Oc2c(ccc3ccccc23)C1c1cccs1 (stereo unspecified),active: 0.631 µM,
COc1ccc(NC(=O)CN(C)CC(=O)N2CCCCCC2)cc1,inactive,
CN1CCN(c2ncc(CN3C(=O)c4ccccc4C3=O)s2)CC1,"inconclusive [inhibitor, partial curve]",
CCc1cccc(CC)c1NC(=O)CSc1nc2ccc(N3C(=O)C4C(C3=O)[C@H]3C=C[C@@H]4C3)cc2s1 (stereo partly specified),active: 8.2 µM,
Cc1cc(S(=O)(=O)NC2CCCC2)ccc1-n1cnnn1,inactive,
CC(C)(C)Nc1nc(NC(C)(C)C)nc(-n2ccnc2)n1,inactive,
Cc1cc(C)c2c(n1)sc1c(N3CCN(C)CC3)ncnc12,active: 13 µM,
CCOc1ccc2nc(SCC(=O)c3cccs3)sc2c1,"inconclusive [inhibitor, single point]",
COc1ccc2[nH]c3c(c2c1)CCN1C(=O)C(CC(=O)NCCCN(C)C)C[C@H](C(=O)N2CCOCC2)[C@@]31CCC1CCCC1 (stereo partly specified),"inconclusive [inhibitor, single point]",
Clc1cccc(Oc2cnns2)c1Cl,active: 25.9 µM,
COC(=O)N1[C@H](C)C=C[C@]1(Cc1ccccc1)C(=O)O,inactive,

SMILES,Potency,"activity change, negative = growth inhibition"
CCCC/C(O)=C1\C(=O)CC(C)(C)CC1=NCCCCCC(=O)O,inactive,
CC(=O)Nc1ccc2nc(SCC(=O)Nc3ccc(N4CCOCC4)c(Cl)c3)sc2c1,"inconclusive [inhibitor, single point]",
COC(=O)[C@]12CCCCC=C1N(Cc1ccccc1)C(=O)[C@H](CC(=O)N1CCN(C(=O)c3ccco3)CC1)C2,"inconclusive [inhibitor, single point]",
COc1ccc(C2=Nc3nc(-c4ccccc4)cn3C(c3ccc(OC)cc3)C2)cc1 (stereo unspecified),"inconclusive [inhibitor, single point]",
CN(Cc1cccnc1)Cc1cn(C)nc1-c1cccc(Cl)c1,active: 15.8 µM,
O=C(c1ccco1)N1N=C(c2ccc(Cl)cc2)CC1(O)C(F)(F)F (stereo unspecified),"inconclusive [inhibitor, partial curve, poor fit]",
COc1ccc(Cl)cc1NC(=O)c1sc2nc(-c3ccc(OC)c(OC)c3)ccc2c1N,"inconclusive [inhibitor, partial curve, poor fit]",
CN(C)CCNC(=O)c1ccc(COc2ccc(Cl)cc2Cl)cc1,active: 18.4 µM,
O=C(OCc1ccccc1)N1CCC2CC1c1cc(N3CCN(S(=O)(=O)c4cccc(C(F)(F)F)c4)CC3)ccc12 (stereo unspecified),"inconclusive [inhibitor, partial curve]",
COc1ccc(CCNC(=O)CSCc2nc(-c3cccc(C)c3)oc2C)cc1OC,"inconclusive [inhibitor, single point]",
O=C(NCc1ccccc1)c1ccc2c(c1)N(Cc1ccc(F)cc1)CCS2,active: 18.4 µM,
O=C(NC1CCCC1)c1ccc(CSc2nc3cccnc3n2Cc2ccccc2)cc1,active: 16.4 µM,
N/C(COc1ccccc1)=N\NC(=O)c1cccnc1Oc1ccccc1,"inconclusive [inhibitor, single point]",
CCN(Cc1ccccc1OC)CC1CCCN(CCc2cccc(OC)c2)C1 (stereo unspecified),"inconclusive [inhibitor, single point]",
Cc1nnc(SCC(=O)NNC(=O)c2ccccc2)n1N,inactive,
CNc1nc(NCc2ccccc2)nc(N)c1[N+](=O)[O-],"inconclusive [inhibitor, single point]",
CC(C)c1ccccc1OCCCCN1CCCCC1,"inconclusive [inhibitor, single point]",
O=C(COc1ccc(Cl)cc1)Nc1ccc(-c2nc3cc(Cl)ccc3o2)c(O)c1,inactive,
CC(=O)c1ccc(NC(=O)CCc2ccc(C)o2)cc1,inactive,
O=C(/C=C/c1cccc(Cl)c1)Nn1c(-c2cccs2)nc2ccccc2c1=O,inactive,
CCOCCCn1cnc2c([nH]c3cc(OC)ccc32)c1=O,,inconclusive: -32.1% [inhibitor]
CCCN(/C=N/c1sc2c(c1C#N)CCCCC2)CCC,"inconclusive [inhibitor, single point]",
Cc1ccc(Cc2c(-c3ccc(C)cc3)nc3c4ccccc4ccn23)cc1,"inconclusive [inhibitor, single point]",
COc1cccc(C=O)c1OC(=O)N1CCOCC1,"inconclusive [inhibitor, full curve, poor fit]",
